According to PubChem BioAssay AID463173 (ICCB-Longwood Screening Facility, Harvard Medical School, 2010):
The whole screen tested about 52,000 compounds, of which about 1,700 (3.3%) were called active. Cut-off read from the data, not from the text of the source: active = survival mostly below about 52% (no sharp cut-off); inactive = mostly above about 56%. The list shows a part of the results.

Each compound was assayed on Wild type (assay: S. aureus survival, RN4220 and DeltatarO strains – OD600, teichoic acid synthesis inhibitors, primary screen (AID 463173)). Settings: S. aureus RN4220 wild type/DeltatarO growth, OD600, 18 h, active compounds read low, screened at 18.75 µg/mL (by protocol).
For `CCOC(=O)CCn1cnc2onc(-c3ccccc3Cl)c2c1=O`, the survival was inactive: 119%. In the case of `COc1cc(-c2nnc(SCC(=O)Oc3ccc(C)cc3C)o2)cc(OC)c1OC`, the survival is reported as inactive: 82%. `Cc1ccc(CNC(=O)c2nc(S(=O)(=O)Cc3ccc(C)cc3)ncc2Cl)cc1` was tested, and the survival was inactive: 77%. With `CCOC(=O)C1(C)C=C(Nc2cccc(C)c2)C(=O)N1c1ccccc1` (centres undefined) the survival was inactive: 51%. `COc1ccc(NC(=O)CN(c2ccccc2OC)S(C)(=O)=O)c(OC)c1` was tested, and the survival was inactive: 70%. In the case of `COC(=O)CCCCC1SCC2NC(=O)NC21` (centres undefined), the survival is reported as inactive: 90%. `COc1cc(NC(=O)CCc2c(C)nc3c4c(C)cc(C)nc4nn3c2C)cc(OC)c1` was tested, and the survival was inactive: 89%. In the case of `Cc1cc(C)cc(NC(=O)CCCn2nc(C)c3c(C)n(-c4ccccc4)nc3c2=O)c1`, the survival is reported as inactive: 66%. `O=C1c2[nH]nc(-c3ccccc3O)c2C(c2ccc(Cl)cc2)N1CCc1ccccc1` (centres undefined) was tested, and the survival was active: 4%. `Cn1c(=O)cc(OCC(=O)N2CCN(c3ccc(F)cc3)CC2)c2ccccc21` was tested, and the survival was inactive: 66%. In the case of `CCOCN(C(=O)Cn1c(CC(C)C)nc2ccccc21)c1c(C)cccc1CC`, the survival is reported as active: 5%. For `CCOc1ccccc1Nc1ncnc2c1c(-c1ccccc1)cn2-c1ccc(OC)cc1`, the survival was inactive: 119%. With `CC(C)c1ccc(NC(=O)C(NS(=O)(=O)c2ccc3c(c2)CCC(=O)N3)c2ccccc2)cc1` (centres undefined) the survival was inactive: 68%. With `COc1cc(OC)cc(-c2cc3nc(C)c(CCC(=O)Nc4ccc(F)c(Cl)c4)c(C)n3n2)c1` the survival was inactive: 84%. With `CCc1ccc(NC(=O)N(Cc2cn(CC)c3ccccc23)C2CCCCC2)cc1` the survival was active: 0%. In the case of `Cc1c(Cl)cccc1NC(=O)C(C)N(c1ccccc1)S(C)(=O)=O` (centres undefined), the survival is reported as inactive: 70%. For `Cc1cc(C)cc(NC(=O)c2ncn(-c3ccccc3)n2)c1`, the survival was inactive: 74%. In the case of `O=C(CSCc1cnn(-c2ccccc2)c1-n1cccc1)NCc1ccccc1Br`, the survival is reported as inactive: 123%. With `CCc1ccc(NC(=O)COCc2cc(-c3ccc(F)cc3)on2)cc1` the survival was inactive: 75%. For `Cc1ccc(-c2cn3cccnc3n2)cc1NC(=O)Cc1ccccc1`, the survival was inactive: 89%. In the case of `O=S(=O)(c1ccccc1)c1nc(-c2ccccc2)oc1N1CCN(c2cccc(Cl)c2)CC1`, the survival is reported as inactive: 86%. With `C=CCN(CC=C)C(=O)c1c(-c2ccccc2Cl)noc1C` the survival was inactive: 101%. `CCc1ccccc1-n1c2c(cc(-c3nc(-c4ccc(Cl)cc4)cs3)c1=O)C(=O)CC(C)(C)C2` was tested, and the survival was inactive: 73%. In the case of `COc1ccc(Cc2nc3ccc(C(=O)NCCc4ccccc4)cc3o2)cc1`, the survival is reported as inactive: 69%. `COc1ccc(CNC(=O)c2ccc3c(c2)CCN3S(=O)(=O)c2ccc(Cl)cc2)cc1` was tested, and the survival was inactive: 88%. In the case of `Cc1ccc(-c2nn3c(=O)cc(CN4CCN(S(=O)(=O)c5ccc(Cl)cc5)CC4)nc3s2)cc1`, the survival is reported as inactive: 74%. For `O=C(COc1ccc(F)cc1)NC1CC(=O)N(c2ccc3c(c2)OCCO3)C1` (centres undefined), the survival was inactive: 74%. With `N#CCSc1nc(N)cc(N)n1` the survival was inactive: 104%. With `COc1cccc(NC(=O)C2CCN(c3cc(C)nc4c(-c5ccc(Cl)cc5)c(C)nn34)CC2)c1` the survival was inactive: 124%. For `CC(NC(=O)C1=Cc2ccccc2OC1)c1ccccc1` (centres undefined), the survival was inactive: 70%. In the case of `CC(=O)Nc1ccc(NC(=O)Cn2c(=O)ccc3cc(S(=O)(=O)N4CCC(C)CC4)ccc32)cc1`, the survival is reported as inactive: 91%. With `COc1cc2nc(SCC(=O)Nc3cccc(C)c3)n3nc(CCn4c(C)nc5ccccc54)nc3c2cc1OC` the survival was inactive: 94%. `CCOc1ccc(OCC)c(NS(=O)(=O)c2ccc3[nH]c(=O)ccc3c2)c1` was tested, and the survival was active: 0%. `CCCc1nc2ccccc2c(N)c1CC` was tested, and the survival was inactive: 103%. For `O=C(N/C(=C\c1ccco1)C(=O)N1CCCC1)c1ccccc1`, the survival was inactive: 110%. `COc1cc(C2NC(=O)N(C)C3=C2C(=O)N(c2ccccc2)C3)ccc1O` (centres undefined) was tested, and the survival was inactive: 73%. In the case of `CCC(C)NC(=O)c1sc2nc(C)c(C(=O)Nc3ccc(C)cc3C)c(-c3ccc(Br)cc3)c2c1N` (centres undefined), the survival is reported as inactive: 87%. For `Cc1ccc2[nH]c(=O)c3cc(C(=O)N4CCN(c5ccccc5F)CC4)sc3c2c1`, the survival was inactive: 75%. `CC1=C(C(=O)Nc2ccc(C)c(C)c2)C2(CCCCCC2)OC1=O` was tested, and the survival was inactive: 118%. For `O=C(CSc1nc(-c2ccccc2)cc(=O)[nH]1)Nc1ccccc1F`, the survival was inactive: 86%. For `COc1ccc(-c2cnc(NCc3ccc(C)cc3)n2C)cc1`, the survival was inactive: 108%. In the case of `Cc1cccc(CSc2ncc(Cl)c(C(=O)Nc3sc4c(c3C#N)CCCC4)n2)c1`, the survival is reported as inactive: 116%. In the case of `COc1ccc(CCNC(=O)CSc2nc3ccccc3nc2Cc2ccc(C)cc2)cc1OC`, the survival is reported as inactive: 52%. With `COc1ccccc1CNC(=O)c1nn(-c2ccc(C)cc2)c(=O)c2c1c1ccccc1n2C` the survival was inactive: 128%. In the case of `O=C(NCc1ccccc1)c1cccc(NC(=O)N2CCSc3ncccc32)c1`, the survival is reported as inactive: 59%. For `CCN(CC)c1nc2c(S(=O)(=O)c3ccc(C)cc3)nnn2c2ccsc12`, the survival was inactive: 84%. With `COc1ccccc1NC(=O)CSc1oc(-c2cccs2)nc1S(=O)(=O)c1ccc(C)cc1` the survival was inactive: 62%. With `O=C(CN1C(=O)c2cccc3cccc1c23)NC1CCCC1` the survival was inactive: 112%. For `O=C(Nc1nnc(S(=O)(=O)N2CCCC2)s1)c1ccccc1Cl`, the survival was inactive: 96%. In the case of `CCn1ccc2cc(S(=O)(=O)N3CCC(C(=O)NCc4ccc(OC(C)C)cc4)CC3)ccc21`, the survival is reported as inactive: 69%. With `CCCSc1nnc2c(n1)OC(CC)N(C(C)=O)c1ccccc1-2` (centres undefined) the survival was inactive: 82%. With `O=C(CN1C(=O)COc2ccc(S(=O)(=O)N3CCCCC3)cc21)NCCc1ccc(Cl)cc1` the survival was inactive: 82%. With `COc1ccc(-c2nc3ccc(C(=O)NCc4ccccc4)cc3nc2-c2ccc(OC)cc2)cc1` the survival was inactive: 72%. In the case of `Cc1ccccc1NC(=O)c1ccccc1NC(=O)c1ccccc1F`, the survival is reported as inactive: 89%. For `COC(=O)COc1ccc(Oc2nc(NC(C)(C)C)nc(N3CCOCC3)n2)nn1`, the survival was inactive: 61%. For `CCOc1ccccc1CNC(=O)Cn1nc(C)c2nn(-c3ccc(Cl)cc3)c(C)c2c1=O`, the survival was inactive: 78%. `COc1ccc(Cc2nc3c4cnn(-c5ccccc5Br)c4ncn3n2)cc1` was tested, and the survival was inactive: 89%. For `CC1=C(c2ccc(C)c(C)c2)S(=O)(=O)N(Cc2ccc(C(=O)NCc3ccc(C)cc3)cc2)C1=O`, the survival was inactive: 77%. In the case of `Cc1cccc(OCC(=O)NCc2ccc3c(c2)CCN3C(=O)c2ccccc2)c1`, the survival is reported as inactive: 82%. In the case of `COc1ccc(N2CCN(S(=O)(=O)c3c(C)nc4sc(C)cn4c3=O)CC2)cc1`, the survival is reported as inactive: 95%. In the case of `CCOc1ccc(NC(=O)c2cc(CN3CCCC3)on2)cc1`, the survival is reported as inactive: 128%. `O=C(Cn1c(=O)oc2cc(S(=O)(=O)NCc3ccccc3)ccc21)NCc1ccc(F)cc1` was tested, and the survival was inactive: 89%. With `COc1ccc(/C=C/C(=O)Nc2ccc(Cl)c(Cl)c2)cc1OC` the survival was active: 5%. `O=C(Cn1nc(C(F)(F)F)c2c1CCCC2)Nc1ccc(F)c(Cl)c1` was tested, and the survival was inactive: 77%. With `Cc1c(C(=O)NCc2ccc(F)cc2)sc2nc3n(c(=O)c12)CCC3` the survival was inactive: 82%. In the case of `COc1ccc(-c2ccc(=O)n(CC(=O)Nc3ccc(N(C)C)cc3)n2)cc1`, the survival is reported as inactive: 57%. With `CC(=O)Nc1ccc(NC(=O)Nc2sc3nc4n(c(=O)c3c2C)CCC(C)CC4)cc1` (centres undefined) the survival was inactive: 91%. For `Cc1c(NC(=O)c2cc3ccccc3o2)cccc1-c1nc2ccccc2o1`, the survival was inactive: 35%. For `COc1ccc(OC)c(NC(=O)c2ccc(-c3nc(COc4ccccc4)c(C)o3)cc2)c1`, the survival was inactive: 83%. With `Cc1cccc(N(C)C(=O)C2CCN(S(=O)(=O)c3cccc4nonc34)CC2)c1` the survival was inactive: 59%. With `Cc1ccc2nc(Nc3ccc(Br)cc3)nc(-c3ccccc3)c2c1` the survival was inactive: 56%. In the case of `CCOc1ccc2oc(=O)cc(CN3CCN(C(=O)c4ccc(Cl)cc4)CC3)c2c1`, the survival is reported as inactive: 81%. For `CCCCc1nn2c(=O)cc(COC(=O)CNC(=O)c3ccccc3C)nc2s1`, the survival was inactive: 120%. `CSc1ccc(C2c3c(oc4ccc(F)cc4c3=O)C(=O)N2c2ccc(C)cn2)cc1` (centres undefined) was tested, and the survival was inactive: 76%. For `COc1ccc(OC)c(NC(=O)Cn2cc(C(=O)c3cccs3)c3ccccc32)c1`, the survival was inactive: 67%. In the case of `Cc1ccc(C(C)C)c(OCCSc2nc(-c3cccs3)nc3cc(=O)[nH]n23)c1`, the survival is reported as inactive: 75%. In the case of `CCc1cccc(CC)c1NC(=O)Cc1csc(C)n1`, the survival is reported as inactive: 83%. `O=C(Nc1ccccc1Cl)NC1(C(=O)NCc2cccnc2)CCCCC1` was tested, and the survival was inactive: 111%. `Cc1cccc(CN2C(=O)c3ccccc3Sc3ccc(C(=O)NCCc4ccccc4)cc32)c1` was tested, and the survival was inactive: 81%. `CCC(=O)N1CCc2cc(CNS(=O)(=O)c3ccc(Cl)s3)ccc21` was tested, and the survival was inactive: 78%. For `Cc1ccc(NC(=O)/C(C#N)=C/c2cn(CC(=O)NCc3ccco3)c3ccccc23)c(C)c1`, the survival was inactive: 110%. With `Cc1cc(Nc2cccc(F)c2)n2nc(-c3ccco3)nc2n1` the survival was inactive: 69%. In the case of `O=C1C=C(c2ccccc2)OC(c2ccccc2)O1` (centres undefined), the survival is reported as inactive: 114%. In the case of `NC(=O)C1(N2CCCCC2)CCN(C(=O)Nc2ccc(Cl)c(Cl)c2)CC1`, the survival is reported as inactive: 116%. For `Cc1ccc(C)c(N2CCN(C(=O)C3CCN(Cc4nc(-c5cccc(Cl)c5)oc4C)CC3)CC2)c1`, the survival was active: 3%. With `COc1ccc(CNC(=O)c2cc3sccc3n2C)cc1` the survival was inactive: 67%. In the case of `COc1cccc(NC(=O)c2sc3nc(C)c(C(=O)Nc4ccc(C)cc4C)c(-c4ccc(Br)cc4)c3c2N)c1`, the survival is reported as inactive: 139%. `COc1ccc(N2CCN(C(=O)c3cc4c(=O)n(Cc5cccs5)ccc4nc3C)CC2)cc1` was tested, and the survival was inactive: 101%. In the case of `Cc1cc(Cl)ccc1NC(=O)C1CCN(S(=O)(=O)c2ccc3[nH]c(=O)ccc3c2)CC1`, the survival is reported as inactive: 81%.
